Assay results as given in PubChem BioAssay AID1745845 (National Center for Advancing Translational Sciences (NCATS), 2022).
About 2,600 (0.72%) of roughly 360,000 compounds were called active. Inconclusive means that the source gave no clear call. Such entries were picked first, then a sample of the others. The call rests on the fitted dose curve; in most records, active means well fitted inhibition curve with a large enough effect; inconclusive means small, poorly fitted or top-dose-only effect; inactive means no such curve, though single readings can be large or run the other way. Potencies of inconclusive entries are doubtful fits and often do not repeat.

experiment: Primary qHTS for Inhibitors of ATXN expression; conditions: HEK-293 ATXN2-luciferase reporter, luminescence, 24 h; activity change, negative = inhibition: at 57 µM (top of the series); further: nearly all actives have a fitted effect of over 55% in size
Method in brief: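 ATXN2-luciferase reporter cells (luciferase flanked by upstream and downstream ATXN2 gene portions) were treated 24 h at 37 °C with compounds at up to 57 uM. SteadyGlo luminescence gave expression; GF-AFC fluorescence gave viability.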
On the % scale 0 is the no-effect control and ±100 the full control effect; potency means the concentration at half of the fitted maximal effect; tags describe the fitted curve by direction and shape.

Potency, active:
O=C(Nc1nc(-c2ccccn2)cs1)c1ccccc1-n1cnnn1 10 µM, COc1ccc(CCC(=O)Nc2c(-c3ccc(N(C)C)cc3)[nH][nH]c2=O)cc1 20 µM

Potency, inactive:
COC(=O)c1sccc1S(=O)(=O)N(CC(=O)NCc1ccc(C)cc1)c1ccccc1, Cc1nn(C)c(C)c1/C=C1/SC(=S)NC1=O, CC(=O)c1ccc(OCC(O)CN2CCN(S(=O)(=O)c3c(C)c(C)cc(C)c3C)CC2)cc1 (stereo not given), CCCCNC(=S)Nc1ccc(F)cc1, OC1CCCN(C(=S)Nc2ccc(SC(F)F)cc2)C1 (stereo not given), CCOCCc1nn2c(=O)cc(COC(=O)c3ccccc3NC(=O)c3ccccc3F)nc2s1, Cc1nn(C)c(C)c1CN(C)S(=O)(=O)c1ccc2ccccc2c1, CC(=O)CSc1cc(-c2ccccc2)nc2ncnn12, CC(C)CNC(=O)N1CCN(S(=O)(=O)c2ccc3c(ccn3C)c2)CC1, CCCCOc1ccc2c(C)cc(=O)oc2c1OCCCC, Fc1cccc(Cl)c1CSc1nnc(CNc2ccccc2)o1, Cc1ccc(C)c(N2CCN(C(=O)c3ccc(-c4nc(COc5ccccc5)c(C)o4)cc3)CC2)c1, COC1OC(c2ccccc2)=C(c2ccc(C(N)=O)cc2)c2ccc(F)cc21 (stereo not given), CCCCC(CC)COP(=O)(OCC(CC)CCCC)OCC(CC)CCCC (stereo not given), O=C1c2ccc([N+](=O)[O-])cc2S(=O)(=O)N1Cc1ccccc1, C=CCn1c(SCC(=O)Nc2ccc(OC)cc2)nc2ccccc2c1=O, O=S(=O)(c1cccs1)N1CCN(CC(O)COC2CCCc3ccccc32)CC1 (stereo not given), O=C(N=Nc1c(O)[nH]c2ccccc12)c1ccccc1NS(=O)(=O)c1cccs1

Potency, inconclusive:
C=C[C@@H]1CN2CCC1C[C@@H]2C(O)c1ccnc2ccc(OC)cc12 (stereo not given in full) 24.3 µM [inhibitor, partial curve, poor fit], CCCN(CCC)CCNC(=O)C1CCN(Cc2nc(-c3ccc(Cl)cc3)oc2C)CC1 20 µM [inhibitor, partial curve, poor fit], CCOc1ccccc1Nc1ccnc2cc(Cl)ccc12 39.8 µM [inhibitor, single point], O=C1NC(c2ccccc2)=C(c2nc3ccccc3s2)C(c2ccc(F)cc2)N1 (stereo not given) 39.8 µM [inhibitor, single point], O=C(c1ccc(-c2nc3ccccc3s2)s1)N1CCOCC1 10 µM [inhibitor, partial curve, poor fit], COc1cccc(OC)c1OCC(O)CN1CCN(c2ccc(F)cc2)CC1 (stereo not given) 15.8 µM [inhibitor, partial curve], COC(=O)CCS(=O)(=O)c1nc(-c2ccccc2)cc(C(F)(F)F)n1 39.8 µM [inhibitor, single point], C/C(=N\NC(=O)c1cccc2ccccc12)c1ccccn1 2 µM [inhibitor, full curve, poor fit], CS/C(=C\[N+](=O)[O-])Nc1ccc(OC(F)(F)F)cc1 17.8 µM [inhibitor, partial curve, poor fit], COc1ccc(/C=N/Nc2nncc3ccccc23)cc1 17.8 µM [inhibitor, single point], CSC(=S)NN=C(C)c1cccc(C)n1 2.12 µM [inhibitor, full curve, poor fit], C=CCCCCCCCCc1nc(SCC(C)=O)n[nH]1 9.47 µM [inhibitor, partial curve, poor fit], CCN(CC)C(=O)C1=C(C)N(CCC2=CCCCC2)C(=O)C(CC(=O)NCc2cccc3ccccc23)C1 (stereo not given) 31.6 µM [inhibitor, single point], Cc1cc(C)cc(NC(=O)CCNC(=O)c2ccc([N+](=O)[O-])cc2)c1 12.6 µM [inhibitor, partial curve, poor fit], C[C@H](CO)N1C[C@H](C)[C@H](CN(C)Cc2ccncc2)Oc2cc(-c3ccccc3F)ccc2S1(=O)=O 35.5 µM [inhibitor, single point], O=C(Nc1nc(-c2ccccc2)cs1)C1CCCCN1S(=O)(=O)c1ccc(Cl)cc1 (stereo not given) 39.8 µM [inhibitor, partial curve, poor fit], CCCN1CCN(C(=O)C2CCN(S(=O)(=O)c3c(C)noc3/C=C/c3ccc(C)cc3)CC2)CC1 28.2 µM [inhibitor, single point], Cc1sc2nc(SCc3ccc(C(=O)O)cc3)n(Cc3ccco3)c(=O)c2c1C 28.2 µM [inhibitor, partial curve], Cc1cn(-c2cc(C(=O)Nc3ccc(C)c(NC(=O)C(=O)c4c[nH]c5ccccc45)c3)cc(C(F)(F)F)c2)cn1 20 µM [inhibitor, single point], CCCc1cc(=O)oc2c3c(c4c(c12)OC(C)(C)C=C4)OC(C)C(C)C3O (stereo not given) 37.7 µM [inhibitor, single point], COCCN(CC(=O)NC1CCCCC1)C(=O)/C=C/C(=O)c1ccc(OC)cc1O 26.7 µM [inhibitor, partial curve, poor fit], Cc1ccc(-c2cn3cc([N+](=O)[O-])ccc3n2)cc1 37.7 µM [inhibitor, single point], COc1ccccc1C(NC(=O)C1CCN(CCOc2ccc3ccccc3c2)CC1)c1ccccn1 (stereo not given) 25.1 µM [inhibitor, partial curve], Cn1cc(C(=O)c2ccc(Cl)cc2)cc1-c1nc2ccccc2n1C 25.1 µM [inhibitor, partial curve, poor fit], C(=N\Nc1nc2ccccc2s1)/c1ccccn1 2.67 µM [inhibitor, full curve, poor fit], O=C(CCCCn1c(=O)[nH]c2ccsc2c1=O)N1CCN(c2cccc(C(F)(F)F)c2)CC1 25.1 µM [inhibitor, single point], CCOc1ccc(N(CC(=O)NCCSc2ccccn2)S(=O)(=O)c2ccc(Cl)cc2)cc1 3.16 µM [inhibitor, full curve], CCCCCCSc1cccc(-c2nc3cc(C)ccn3c2NC2CCCCC2)c1 31.6 µM [inhibitor, single point], COc1cccc(CNS(=O)(=O)c2ccc3[nH]c4c(c3c2)CCCCC4)c1 22.4 µM [inhibitor, partial curve, poor fit], Cc1ccc(N2CCN(/N=C/c3cccnc3)CC2)cc1 31.6 µM [inhibitor, single point], Cc1ccc(CN(C)C(=O)c2cccc(S(=O)(=O)N3CCc4ccccc43)c2)cc1 11.2 µM [inhibitor, partial curve, poor fit], O=C(NCCc1ccccn1)c1ccc(OC(F)F)cc1 11.2 µM [inhibitor, partial curve, poor fit], C(=N\Nc1nc(Nc2ccccc2)nc(N2CCOCC2)n1)/c1c[nH]c2ccccc12 2.82 µM [inhibitor, partial curve, poor fit], O=C(c1cccc(Cl)c1)N1CCC(=O)N([C@H](COCc2cccc(Cl)c2)Cc2ccccc2)CC1 39.8 µM [inhibitor, single point], CCOCCn1ccc2c(OCC(=O)Nc3ccc(OC)c(OC)c3)cccc2c1=O 22.4 µM [inhibitor, single point], COc1ccc(/C=C2/SC(=S)N(CCCC(=O)Nc3cccc(O)c3)C2=O)cc1 17.8 µM [inhibitor, partial curve], Cc1ccccc1Cn1nnc2c(=O)[nH]c(C3CCCN(C(=O)c4ccc(C(C)(C)C)cc4)C3)nc21 (stereo not given) 39.8 µM [inhibitor, single point], O=C(/C=C/c1ccc([N+](=O)[O-])s1)N1CCCCC1 28.2 µM [inhibitor, single point], CCOc1ccc2nc3cc(N=Nc4ccc(N)nc4N)ccc3c(N)c2c1 11.9 µM [inhibitor, partial curve, poor fit], COc1cccc(N2CCN(c3cnc4ccccc4n3)CC2)c1 39.8 µM [inhibitor, single point], Cc1ccccc1C1c2[nH]c3ccccc3c2CCN1C(=O)c1ccc(=O)n(C)n1 (stereo not given) 31.6 µM [inhibitor, single point], CCC(C)(C)c1ccc(OCCCC[n+]2cccc(C)c2)c(C(C)(C)CC)c1 11.9 µM [inhibitor, partial curve, poor fit], COc1ccc(OC)c(CCNC(=O)c2cnn(-c3ccccc3)c2-n2cccc2)c1 31.6 µM [inhibitor, partial curve], CC(=O)c1ccc(N2CCN(C(=O)/C=C/c3ccc(S(=O)(=O)NCc4ccco4)cc3)CC2)cc1 25.1 µM [inhibitor, single point]

Activity change, negative = inhibition, inactive:
Cc1ccnc(NS(=O)(=O)c2ccc(NC(=O)C3CC=CCC3C(=O)O)cc2)n1 (stereo not given) 10.6% [at 11.3 µM]
